Reference: PubChem BioAssay AID485341 (National Center for Advancing Translational Sciences (NCATS), 2010)
In all, about 330,000 compounds went through this assay and about 1,700 (0.52%) were called active. The shares of active, inactive and inconclusive entries below differ from those in the screen. The call rests on the fitted dose curve; in most records, active means well fitted inhibition curve with a large enough effect; inconclusive means small, poorly fitted or top-dose-only effect; inactive means no such curve, though single readings can be large or run the other way. Where the call is inconclusive, the potency comes from a doubtful curve fit.

What follows are compounds tested against Beta-lactamase (Escherichia coli (strain K12)) (UniProt P00811) (assay: qHTS Inhibitors of AmpC Beta-Lactamase (assay without detergent)). Details: AmpC nitrocefin hydrolysis, absorbance 480 nm, 0.0001% Triton; activity change, negative = inhibition: at 57.1 µM (top of the series) unless noted.
In short: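 20 mM phosphate pH 7.0 + 0.01% (detergent screen) or 0.0001% Triton X-100; 5.3 nM AmpC reagent; cpd preinc 15 min RT; nitrocefin (800 uM stock) to start; A480 q20 s × 4 min; Activity was normalised to no-enzyme and no-compound control wells.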
Further: nearly all actives have a fitted effect of over 20% in size.
Potency means the concentration at half of the fitted maximal effect; tags describe the fitted curve by direction and shape.
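Wherever activity change, negative = inhibition is given: plate controls were no compound for no effect and no enzyme for full effect.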

Chain of UniProt P00811 (P00811 whole entry, looked up): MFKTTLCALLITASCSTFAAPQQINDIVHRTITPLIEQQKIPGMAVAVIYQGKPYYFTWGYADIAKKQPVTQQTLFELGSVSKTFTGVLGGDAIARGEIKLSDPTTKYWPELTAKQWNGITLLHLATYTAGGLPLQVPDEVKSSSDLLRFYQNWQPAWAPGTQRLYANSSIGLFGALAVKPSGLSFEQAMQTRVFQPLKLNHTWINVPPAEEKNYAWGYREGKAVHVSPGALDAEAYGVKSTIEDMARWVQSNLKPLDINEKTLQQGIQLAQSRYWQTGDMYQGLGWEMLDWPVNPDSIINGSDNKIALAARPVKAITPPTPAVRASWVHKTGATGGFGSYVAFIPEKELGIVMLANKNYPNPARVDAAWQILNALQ

Row | SMILES | Potency | activity change, negative = inhibition
1 | CCN(CCCNc1ncnc2nc[nH]c12)c1cccc(C)c1 | inconclusive: 10 µM [inhibitor, partial curve, poor fit] | –
2 | O=C(NC(=S)N1CCCc2ccccc21)c1ccc(Cl)cc1 | – | inactive: 13.9%
3 | COC(=O)c1ccccc1NC(=O)CN1CCC(n2nnc3cc(F)ccc32)CC1 | inconclusive: 5.01 µM [inhibitor, partial curve, poor fit] | –
4 | NC(=O)CN1CCN(C(=O)Nc2ccccc2)CC1 | active: 22.4 µM | –
5 | CCN(CC)S(=O)(=O)c1ccc2nc(CSc3nnnn3-c3ccc(O)cc3)[nH]c2c1 | inconclusive: 12.6 µM [inhibitor, partial curve] | –
6 | Cc1cccn2c(=O)c3cc(C(=O)N4CCCC(C)C4)sc3nc12 (stereo not drawn) | – | inactive: -5.36%
7 | Cc1ccc(-c2cc(C(=O)NCc3ccccn3)c3ccccc3n2)cc1 | inconclusive: 1.12 µM [inhibitor, partial curve, poor fit] | –
8 | CCNc1ccc(S(=O)(=O)C(F)(F)F)cc1NC(=O)C12CCC(CC1)C2 | inconclusive: 6.31 µM [inhibitor, single point] | –
9 | Cc1cc(C)c(NC(=O)CN2CCN3CCCC3C2)c(C)c1 (stereo not drawn) | inconclusive: 8.91 µM [inhibitor, single point] | –
10 | Oc1ccc(Cl)cc1-c1cc(-c2ccccc2)n[nH]1 | inconclusive: 3.55 µM [inhibitor, full curve, poor fit] | –
11 | COc1cccc(C(=O)NCCS(=O)(=O)NCc2cccnc2)c1 | inconclusive: 31.6 µM [inhibitor, single point] | –
12 | COc1ccc(OCCSc2ccc(S(=O)(=O)N3CCCC3)cn2)cc1 | inconclusive: 22.4 µM [inhibitor, partial curve] | –
13 | O=C(Nc1ccccn1)C(NS(=O)(=O)c1cccc2nsnc12)c1ccccc1 (stereo not drawn) | inconclusive: 11.2 µM [inhibitor, partial curve] | –
14 | Cc1cc(C)c(S(=O)(=O)N2CCCC2CNC(=O)c2ccc3c(c2)OCO3)c(C)c1 (stereo not drawn) | inconclusive: 25.1 µM [inhibitor, single point] | –
15 | Cc1ccc(NC(=O)CC2C(=O)N(Cc3ccccc3)C(=S)N2NC(=O)c2cccc(F)c2)c(C)c1 (stereo not drawn) | active: 31.6 µM | –
16 | Cc1ccc(/C=c2\sc3nc(-c4ccco4)nn3c2=O)o1 | inconclusive: 39.8 µM [inhibitor, single point] | –
17 | CCN(CC(=O)NCc1ccc(F)cc1)C(=O)CN1CCN(c2ccc(OC)cc2)CC1 | – | inactive: 2.82%
18 | O=C(Nc1nc(-c2cccc([N+](=O)[O-])c2)cs1)C(c1ccccc1)c1ccccc1 | inconclusive: 0.708 µM [inhibitor, partial curve, poor fit] | –
19 | Cc1oc(C)c2c(=O)ccc3c(c12)OC(N)=C(C#N)C3c1ccccc1 (stereo not drawn) | inconclusive: 3.98 µM [inhibitor, single point] | –
20 | COc1ccc(NC(=O)c2cc(-c3ccccc3)nc3c2c(C)nn3-c2ccccc2)c(OC)c1 | inconclusive: 22.4 µM [inhibitor, single point] | –
21 | O=C(NCc1cccnc1)c1ccc(NC(=O)c2ccc([N+](=O)[O-])cc2)cc1 | inconclusive: 7.94 µM [inhibitor, full curve, poor fit] | –
22 | NS(=O)(=O)c1ccc(CCNC(=O)c2ccccc2OCc2ccc(F)cc2)cc1 | active: 11.2 µM | –
23 | CCOC(=O)C1=C(c2ccccc2)N=c2s/c(=C\c3ccco3)c(=O)n2C1c1cccs1 (stereo not drawn) | active: 12.6 µM | –

Row | SMILES | Potency | activity change, negative = inhibition
24 | Cc1[nH]ccc(=O)c1OCc1ccccc1 | inconclusive: 0.141 µM [inhibitor, full curve, poor fit] | –
25 | Cc1cccc(-c2noc(CN(C(=O)C34CC5CC(CC(C5)C3)C4)C(C)C)n2)c1 | inconclusive: 5.01 µM [inhibitor, single point] | –
26 | CC(/C=N/NC(=O)Cc1cccn1C)=C\c1ccco1 | inconclusive: 6.31 µM [inhibitor, single point] | –
27 | S=C(NNc1ccc2ccccc2c1)NC1CCCCC1 | inconclusive: 35.5 µM [inhibitor, partial curve] | –
28 | COc1ccc(-c2oc3ccccc3c2C#CC(C)(C)O)cc1 | – | inactive: 44.9%
29 | COc1cc(NC(=O)COc2cc(O)c3c(c2)OC(C)(C)CC3=O)cc(OC)c1OC | – | inactive: 54.2%
30 | Cc1ccc(-c2noc(CN3CCN(c4ccccc4F)CC3)n2)cc1 | inconclusive: 89.1 µM [inhibitor, partial curve, poor fit] | –
31 | COc1ccc(CC(=O)NNC(=O)c2cc(Cl)ccc2OC)cc1 | – | inactive: -2.6%
32 | O=C(Nc1nc2ccc(S(=O)(=O)N3CCCC3)cc2s1)C1CCCCC1 | inconclusive: 10 µM [inhibitor, partial curve] | –
33 | CN(C)C(=O)N1CCN(C(=O)c2ccco2)CC1 | active: 28.2 µM | –
34 | O=C(NC1CCCCC1)C(c1ccncc1)N(Cc1ccc(F)cc1)C(=O)c1ccccn1 (stereo not drawn) | – | inactive: 69.9%
35 | CC(C)Cc1ccc(-c2cc(=O)[nH][nH]2)cc1 | inconclusive: 28.2 µM [inhibitor, single point] | –
36 | COc1cc(NC(=O)C2CCC(CNc3c(N4CCCCC4)c(=O)c3=O)CC2)cc(OC)c1 (stereo not drawn) | active: 50.1 µM | –
37 | C[C@H]1CN=C(N(C)C)N1CC1CCCC1 | – | inactive: -21.6%
38 | Cc1ccc(/C=N/NC(=O)c2cc(C3CC3)nc3ccccc23)o1 | inconclusive: 25.1 µM [inhibitor, single point] | –
39 | Clc1ccccc1C1CC(c2ccccc2)Nc2ncnn21 (stereo not drawn) | active: 39.8 µM | –
40 | C/C(=N\NC(=O)c1cccc(S(=O)(=O)Nc2cccc(Cl)c2)c1)c1cccs1 | inconclusive: 14.1 µM [inhibitor, partial curve] | –
41 | Cc1cc(-c2csc(NC(=O)c3ccc(C#N)cc3)n2)c(C)n1Cc1ccco1 | inconclusive: 10 µM [inhibitor, partial curve] | –
42 | O=C(O)C1C2C=CC(C2)C1C(=O)Nc1ccc(C(=O)N2CCCCC2)cc1 (stereo not drawn) | inconclusive: 6.31 µM [inhibitor, single point] | –
43 | Cc1cc(C(=O)Nn2c(-c3ccc(Br)cc3)nc3ccccc3c2=O)ccc1[N+](=O)[O-] | active: 14.1 µM | –
44 | CS(=O)(=O)Nc1ccc(C2=NN(C(=O)C3CCCCC3)C(c3cccs3)C2)cc1 (stereo not drawn) | active: 7.08 µM | –
45 | CCN(CC)S(=O)(=O)c1nnc(NC(=O)c2ccco2)s1 | – | inactive: -32.1%
46 | COc1ccccc1Nc1nnc(SCC(=O)Nc2nc(-c3ccc(F)cc3)cs2)s1 | active: 15.8 µM | –

Row | SMILES | Potency | activity change, negative = inhibition
47 | Cc1ccccc1Nc1nc(N2CCOCC2)nc(N2CCOCC2)n1 | – | inactive: 17.5%
48 | COc1ccc([C@]23Cc4cc(C#N)ccc4C(O2)c2c(cc(-c4ccccc4)oc2=O)O3)cc1 | inconclusive: 7.94 µM [inhibitor, single point] | –
49 | CC(C)(C)c1cc(C(=O)NCC(=O)OCC(=O)c2cccc([N+](=O)[O-])c2)cc(C(C)(C)C)c1 | inconclusive: 8.91 µM [inhibitor, single point] | –
50 | COc1ccc2c3c1OC1C(O)C=CC4C(C2)[N+](C)(C)CCC341 (stereo not drawn) | inconclusive: 35.5 µM [inhibitor, single point] | –
51 | Cn1c2ccccc2c2cc(/C=N/NC(=O)c3cc(O)cc(O)c3)ccc21 | active: 15.8 µM | –
52 | O=C(N/N=C/c1cc(Cl)c(O)c(Cl)c1)c1cc2c(ccc3ccccc32)o1 | inconclusive: 25.1 µM [inhibitor, partial curve, poor fit] | –
53 | CC1(C(=O)OCC(=O)Nc2ccc(S(=O)(=O)N3CCOCC3)cc2)CC1(Cl)Cl (stereo not drawn) | – | inactive: -18.6%
54 | CC1=CC(C)(C)Nc2ccc(OC(=O)C(C)N3C(=O)c4ccccc4C3=O)cc21 (stereo not drawn) | inconclusive: 3.98 µM [inhibitor, single point] | –
55 | Cc1c(C(=O)OCc2ccccc2)[nH]c2c1C(=O)CC(c1ccco1)C2 (stereo not drawn) | inconclusive: 100 µM [inhibitor, partial curve, poor fit] | –
56 | COc1cccc(NC(=O)CN(C)C(=O)c2ccc3c(c2)S(=O)(=O)N=C2CCCCCN23)c1 | inconclusive: 39.8 µM [inhibitor, single point] | –
57 | CCCCn1c(N)c(N(CC(C)C)C(=O)CN2C(=O)NC3(CC(C)CC(C)(C)C3)C2=O)c(=O)[nH]c1=O (stereo not drawn) | active: 35.5 µM | –
58 | COc1ccc(OCCSc2nc(C)nc3ccccc23)cc1 | – | inactive: 106%
59 | Cc1nc2ccccn2c(=O)c1NC(=O)c1cccc2ccccc12 | inconclusive: 39.8 µM [inhibitor, single point] | –
60 | COCCn1c(N)c(N(Cc2ccccc2)C(=O)COc2ccc(F)cc2Cl)c(=O)[nH]c1=O | inconclusive: 39.8 µM [inhibitor, single point] | –
61 | O=C(N1CCOCC1)n1nnc2ccccc21 | active: 12.6 µM | –
62 | CN(C(=O)CSc1nc2[nH]ncc2c(=O)[nH]1)c1ccccc1 | inconclusive: 39.8 µM [inhibitor, single point] | –
63 | O=C(NCCCN1CCOCC1)c1cc(-c2ccc(O)cc2)on1 | inconclusive: 0.708 µM [inhibitor, full curve, poor fit] | –
64 | CN(C(=O)Nc1ccc(Cl)cc1Cl)[C@H]1c2cc(Br)ccc2OC[C@H]1CO | inconclusive: 0.708 µM [inhibitor, partial curve, poor fit] | –
65 | Cc1ccc(S(=O)(=O)Nn2c(O)c(C=C3N=c4ccccc4=N3)sc2=S)cc1 | inconclusive: 11.2 µM [inhibitor, partial curve] | –
66 | Cc1cc(NS(=O)(=O)c2ccc(NC(=O)COc3ccccc3C(C)C)cc2)no1 | inconclusive: 44.7 µM [inhibitor, partial curve, poor fit] | –
67 | COc1cccc(NC(=O)c2cc(=O)c3ccccc3o2)c1 | – | inactive: -19.6%
68 | Cc1ccc(NC(=O)C2CCCN(S(=O)(=O)c3cnc[nH]3)C2)cc1F (stereo not drawn) | inconclusive: 12.6 µM [inhibitor, partial curve, poor fit] | –
